Here are results for 110 sequences from the supplement of paper PMC3334620.

In all, about 33,000 sequences were measured (“E-score (-0.5 to 0.5)”: median about -0.021, highest 2% from about 0.32 on). The list shows a part of the results.

The assay addresses T1, Zap1 (UniProt P47043).
T1 sequence: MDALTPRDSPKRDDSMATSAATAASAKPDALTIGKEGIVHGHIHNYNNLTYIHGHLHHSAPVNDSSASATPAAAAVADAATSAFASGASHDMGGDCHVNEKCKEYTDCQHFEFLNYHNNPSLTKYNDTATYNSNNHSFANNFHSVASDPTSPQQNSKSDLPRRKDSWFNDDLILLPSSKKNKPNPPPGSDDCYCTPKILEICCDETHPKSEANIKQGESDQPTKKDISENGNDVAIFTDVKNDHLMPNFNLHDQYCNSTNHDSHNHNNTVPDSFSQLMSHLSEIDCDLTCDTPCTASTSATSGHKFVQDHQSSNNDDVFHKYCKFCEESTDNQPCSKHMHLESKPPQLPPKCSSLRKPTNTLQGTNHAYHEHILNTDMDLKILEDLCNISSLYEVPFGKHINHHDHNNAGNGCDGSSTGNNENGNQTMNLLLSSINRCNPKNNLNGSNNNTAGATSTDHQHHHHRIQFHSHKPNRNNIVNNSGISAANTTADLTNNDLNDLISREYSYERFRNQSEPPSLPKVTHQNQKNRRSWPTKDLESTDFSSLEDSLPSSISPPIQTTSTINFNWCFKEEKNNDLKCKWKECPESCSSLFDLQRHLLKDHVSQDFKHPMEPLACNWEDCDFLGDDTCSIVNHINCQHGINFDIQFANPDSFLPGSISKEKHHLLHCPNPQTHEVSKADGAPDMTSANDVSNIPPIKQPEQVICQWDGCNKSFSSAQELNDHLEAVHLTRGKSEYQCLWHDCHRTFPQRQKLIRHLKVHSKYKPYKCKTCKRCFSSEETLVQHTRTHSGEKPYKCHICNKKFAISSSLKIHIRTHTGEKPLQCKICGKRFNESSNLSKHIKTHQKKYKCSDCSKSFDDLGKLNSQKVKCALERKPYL
As to the kind of experiment: PBM E-score (8-mer binding enrichment) (E-score (-0.5 to 0.5)); higher = stronger / more preferred TF binding; most listed sequences are background and not binding sites. The following applies: protein concentration: 200 nM; construct: GST-full length. The method, boiled down: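 Each ungapped eight-base word and its reverse complement, pooled, received an E-score from the Universal PBM Analysis Suite. Underlying scans, normalised with masliner, recorded fluorescent anti-GST bound to GST-tagged yeast transcription factors. These were applied at about 100-200 nM to universal all-10-mer Agilent arrays double-stranded by primer extension.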
Consider AAGGACCA, for which the “PBM E-score” value was determined as 0.0345.

In the case of AGCGGGAT, the “PBM E-score” value is -0.167.

As for ATTTCATG, the “PBM E-score” value was -0.119.

With GATATGGC, the “PBM E-score” value was -0.378.

As to CTGTTGGA, the “PBM E-score” value was found to be 0.0611.

Take AGACAGAA: the “PBM E-score” value is -0.146.

As to CCGGGAGG, the “PBM E-score” value was -0.0571.

Take CAGAAGGC: the “PBM E-score” value was -0.263.

As for CGAAATGA, the “PBM E-score” value is 0.0466.

Consider ATTGAGTA, for which the “PBM E-score” value is 0.205.

GGAGACTA: the “PBM E-score” value is -0.0722.

For the sequence ACAGATGG, the “PBM E-score” value is -0.16.

For ATGGTCGA, the “PBM E-score” value is -0.122.

As to AGGATGAC, the “PBM E-score” value is -0.215.

Turning to ACACGTGT, the “PBM E-score” value is -0.162.

As for CCGCCAGC, the “PBM E-score” value is -0.217.

For the sequence GGAAGAGA, the “PBM E-score” value is -0.226.

For GAACGTCA, the “PBM E-score” value is -0.311.

For CGGTATTA, the “PBM E-score” value is 0.0852.

Turning to ACGGTCCA, the “PBM E-score” value is 0.0301.

Turning to CCCCGCTC, the “PBM E-score” value is -0.186.

CGATCAAC: the “PBM E-score” value was -0.146.

For the sequence GCTATATA, the “PBM E-score” value amounted to 0.128.

TACACTAA: the “PBM E-score” value was 0.159.

For the sequence ACCGCCCC, the “PBM E-score” value was determined as 0.0984.

As to ACATCACG, the “PBM E-score” value was -0.0175.

For the sequence ATGAGATG, the “PBM E-score” value was -0.198.

As to AGCTTAAG, the “PBM E-score” value was -0.0625.

CTTTGCTC: the “PBM E-score” value was -0.13.

ATGGCCTG: the “PBM E-score” value is -0.00074.

Take AAAGAGCC: the “PBM E-score” value is -0.272.

Consider TAGCTGAA, for which the “PBM E-score” value is -0.0861.

For GTCTGCAC, the “PBM E-score” value is -0.125.

Turning to CGCTTCCG, the “PBM E-score” value was -0.144.

Turning to AACTAGGC, the “PBM E-score” value was found to be 0.006.

Regarding AGCAAGAA, the “PBM E-score” value is -0.0654.

Regarding AGTTCCCG, the “PBM E-score” value was -0.014.

Regarding CAGTCCTA, the “PBM E-score” value was -0.146.

In the case of GAGCCAAC, the “PBM E-score” value was -0.0386.

Regarding GAGTTGAC, the “PBM E-score” value was -0.155.

Regarding CAGCGATG, the “PBM E-score” value was -0.113.

Turning to ACCGGACT, the “PBM E-score” value is -0.111.

For CATCAGAA, the “PBM E-score” value was 0.0406.

As to GAAACCCC, the “PBM E-score” value was 0.18.

As for AGGGCTGC, the “PBM E-score” value is -0.0468.

As to GTGTGTCA, the “PBM E-score” value turned out to be 0.0959.

Regarding ATTTCGGA, the “PBM E-score” value came to 0.116.

With GGGTTTGA, the “PBM E-score” value was 0.161.

Regarding GGACACGA, the “PBM E-score” value was 0.043.

For the sequence GTTTATCA, the “PBM E-score” value was found to be 0.209.

For the sequence ACGAGTTG, the “PBM E-score” value was found to be 0.0856.

On to ACGCGTTA, for which the “PBM E-score” value is 0.0976.

Regarding GGAATGCA, the “PBM E-score” value is 0.0522.

As for AGAGACTG, the “PBM E-score” value is -0.24.

Turning to AGTTAGAT, the “PBM E-score” value amounted to 0.0546.

On to ATCACCGC, for which the “PBM E-score” value was 0.0296.

On to ACTCGCCA, for which the “PBM E-score” value was -0.0338.

Consider ACCGAGCA, for which the “PBM E-score” value amounted to 0.0749.

Regarding AACCTCGG, the “PBM E-score” value was determined as 0.302.

For GGTTAGAC, the “PBM E-score” value is 0.287.

As for CTTAGAAA, the “PBM E-score” value amounted to 0.125.

Regarding CTGGATAC, the “PBM E-score” value is -0.0732.

On to CTGCTCGC, for which the “PBM E-score” value was -0.0558.

For the sequence CTCGCCTC, the “PBM E-score” value was -0.356.

In the case of CGCGCGGA, the “PBM E-score” value worked out at 0.0498.

Consider ATTCTGCC, for which the “PBM E-score” value is -0.197.

Regarding AATAGAAG, the “PBM E-score” value was -0.0995.

Take CAGAGACC: the “PBM E-score” value was -0.0259.

For AAGTTCTG, the “PBM E-score” value is -0.148.

TAGCAGGA: the “PBM E-score” value was -0.14.

Turning to GGGCGAAA, the “PBM E-score” value is -0.0509.

Take GGCCCTTA: the “PBM E-score” value turned out to be 0.0678.

For the sequence ACGTAATA, the “PBM E-score” value stood at 0.079.

Consider AGGGTTCC, for which the “PBM E-score” value was 0.354.

As to CCGGCGAC, the “PBM E-score” value was -0.391.

With ACAATAAC, the “PBM E-score” value is 0.299.

For the sequence GCAACTCA, the “PBM E-score” value was determined as 0.114.

Take CTACCCAG: the “PBM E-score” value was 0.0578.

In the case of TAGCCTGA, the “PBM E-score” value was -0.0183.

Take CCGCATCC: the “PBM E-score” value was -0.0138.

ACAAAAGG: the “PBM E-score” value amounted to 0.148.

Consider CTGAAGCA, for which the “PBM E-score” value amounted to 0.0598.

As to ATTATAGA, the “PBM E-score” value was 0.118.

Regarding CACTTAGG, the “PBM E-score” value was found to be 0.1.

With CGGTTACG, the “PBM E-score” value worked out at 0.401.

CAGGGGAG: the “PBM E-score” value is -0.0274.

As to CTCTTCGC, the “PBM E-score” value is -0.169.

Regarding ACTTGCCA, the “PBM E-score” value was -0.0189.

For the sequence CTCATAGC, the “PBM E-score” value was -0.266.

Consider AGGGGGAT, for which the “PBM E-score” value was -0.297.

Take GAATTTTA: the “PBM E-score” value was found to be 0.0203.

Turning to ATGTGAGG, the “PBM E-score” value came to 0.0181.

Consider ACTAGAAC, for which the “PBM E-score” value is -0.0498.

On to ATTTATTC, for which the “PBM E-score” value worked out at 0.0832.

For GGTACATA, the “PBM E-score” value amounted to 0.146.

Take GATCGATA: the “PBM E-score” value is 0.0251.

On to CCACAGAA, for which the “PBM E-score” value came to 0.0259.

GAAAACGC: the “PBM E-score” value was -0.107.

Take ATTGGGTA: the “PBM E-score” value worked out at 0.156.

As to AATCGCAC, the “PBM E-score” value is -0.223.

For the sequence AACACGAT, the “PBM E-score” value was -0.159.

For the sequence CTCGATGC, the “PBM E-score” value is -0.0897.

In the case of GGCTACTA, the “PBM E-score” value was 0.0837.

Turning to ACGATCAT, the “PBM E-score” value turned out to be 0.165.

Regarding GGTACGAC, the “PBM E-score” value is -0.0556.

As to CATCCCAA, the “PBM E-score” value amounted to 0.0674.

Take CAGACAGA: the “PBM E-score” value is -0.0796.

For GCCGAGAC, the “PBM E-score” value was -0.12.

For the sequence GCACTCCA, the “PBM E-score” value was -0.173.

Turning to ACTTTCAG, the “PBM E-score” value was -0.0214.
